# Experimental data reported in the supplement of paper PMC8728848.
# Some of the results follow.
# B1: LSECtin (Homo sapiens), Q6UXB4 (protein)
# chain: MEQESALRELRERVTQGLAEAGRGREDVRTELFRALEAVRLQNNSCEPCPTSWLSFEGSCYFFSVPKTTWAAAQDHCADASAHLVIVGGLDEQGFLTRNTRGRGYWLGLRAVRHLGKVQGYQWVDGVSLSFSHWNQGEPNDAWGRENCVMMLHTGLWNDAPCDSEKDGWICEKKAQLLTPPSALEPRPLQHVVSWGLLTSLAPGADCQRVFSSSSTAAESQKHLAQHSPVQPSAWALGPPCRPHPNSTHADPT
# Legend:
# Assay in all cases: glycan array binding signal (z-score within array); higher = stronger binding
# Conditions in all cases: glycan notation: IUPAC condensed, linker removed
# [1] = target: Man(a1-3)[Man(a1-6)]Man(a1-6)[Man(a1-3)]Man
# Procedure, shortened: (§1)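 Glycan array data were curated from 3228 arrays in the Consortium for Functional Glycomics database and kept only where the protein sequence was available. Glycan names were converted to IUPAC-condensed notation, and columns mapping to the same glycan were averaged. The binding signal is a within-array Z-score, averaged across arrays of the same protein sequence at different concentrations or buffers and across linkers. Negative Z-scores can be read as non-binding.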
# [2] = target: Man(a1-3)[Man(a1-6)]Man(a1-6)[Man(a1-3)]Man(b1-4)GlcNAc(b1-4)GlcNAc
# Procedure, shortened: as §1
# [3] = target: Man(a1-3)[Man(a1-6)]Man(b1-4)GlcNAc(b1-4)GlcNAc
# Procedure, shortened: as §1
# Man(a1-6)Man = target: Man(a1-6)Man
# Procedure, shortened: as §1
# Man(b1-4)GlcNAc = target: Man(b1-4)GlcNAc
# Procedure, shortened: as §1
# Neu5Ac(a2-3)Gal = target: Neu5Ac(a2-3)Gal
# Procedure, shortened: as §1
# [4] = target: Neu5Ac(a2-3)Gal(b1-3)GalNAc
# Procedure, shortened: as §1
# [5] = target: Neu5Ac(a2-3)Gal(b1-3)GalNAc(b1-3)Gal(a1-4)Gal(b1-4)Glc
# Procedure, shortened: as §1
# [6] = target: Neu5Ac(a2-3)Gal(b1-3)GalNAc(b1-3)Gal(b1-4)GlcNAc
# Procedure, shortened: as §1
# [7] = target: Neu5Ac(a2-3)Gal(b1-3)GalNAc(b1-4)[Neu5Ac(a2-3)]Gal(b1-4)Glc
# Procedure, shortened: as §1
# [8] = target: Neu5Ac(a2-3)Gal(b1-3)GalNAc6S
# Procedure, shortened: as §1
# [9] = target: Neu5Ac(a2-3)Gal(b1-3)GlcNAc
# Procedure, shortened: as §1
# [10] = target: Neu5Ac(a2-3)Gal(b1-3)GlcNAc(b1-3)Gal(b1-3)GlcNAc
# Procedure, shortened: as §1
# [11] = target: Neu5Ac(a2-3)Gal(b1-3)GlcNAc6S
# Procedure, shortened: as §1
# [12] = target: Neu5Ac(a2-3)Gal(b1-3)[Fuc(a1-4)]GlcNAc
# Procedure, shortened: as §1
# [13] = target: Neu5Ac(a2-3)Gal(b1-3)[Fuc(a1-4)]GlcNAc(b1-3)Gal(b1-4)[Fuc(a1-3)]GlcNAc
# Procedure, shortened: as §1
# [14] = target: Neu5Ac(a2-3)Gal(b1-3)[Neu5Ac(a2-3)Gal(b1-4)]GlcNAc
# Procedure, shortened: as §1
# [15] = target: Neu5Ac(a2-3)Gal(b1-3)[Neu5Ac(a2-6)]GalNAc
# Procedure, shortened: as §1
# Neu5Ac(a2-3)Gal(b1-4)Glc = target: Neu5Ac(a2-3)Gal(b1-4)Glc
# Procedure, shortened: as §1
# [16] = target: Neu5Ac(a2-3)Gal(b1-4)GlcNAc
# Procedure, shortened: as §1
# [17] = target: Neu5Ac(a2-3)Gal(b1-4)GlcNAc(b1-2)Man(a1-3)[GlcNAc(b1-2)Man(b1-4)GlcNAc(b1-2)Man(a1-6)]Man(b1-4)GlcNAc(b1-4)GlcNAc
# Procedure, shortened: as §1
# [18] = target: Neu5Ac(a2-3)Gal(b1-4)GlcNAc(b1-2)Man(a1-3)[Neu5Ac(a2-6)Gal(b1-4)GlcNAc(b1-2)Man(a1-6)]Man(b1-4)GlcNAc(b1-4)GlcNAc
# Procedure, shortened: as §1
# [19] = target: Neu5Ac(a2-3)Gal(b1-4)GlcNAc(b1-3)Gal(b1-3)GlcNAc
# Procedure, shortened: as §1
# [20] = target: Neu5Ac(a2-3)Gal(b1-4)GlcNAc(b1-3)Gal(b1-4)GlcNAc
# Procedure, shortened: as §1
# [21] = target: Neu5Ac(a2-3)Gal(b1-4)GlcNAc(b1-3)Gal(b1-4)GlcNAc(b1-3)Gal(b1-4)GlcNAc
# Procedure, shortened: as §1
# [22] = target: Neu5Ac(a2-3)Gal(b1-4)GlcNAc(b1-3)Gal(b1-4)[Fuc(a1-3)]GlcNAc
# Procedure, shortened: as §1
# [23] = target: Neu5Ac(a2-3)Gal(b1-4)GlcNAc(b1-6)[Gal(b1-3)]GalNAc
# Procedure, shortened: as §1
# [24] = target: Neu5Ac(a2-3)Gal(b1-4)GlcNAc(b1-6)[Neu5Ac(a2-3)Gal(b1-3)]GalNAc
# Procedure, shortened: as §1
# [25] = target: Neu5Ac(a2-3)Gal(b1-4)GlcNAc6S
# Procedure, shortened: as §1
# [26] = target: Neu5Ac(a2-3)Gal(b1-4)[Fuc(a1-3)]GlcNAc
# Procedure, shortened: as §1
# [27] = target: Neu5Ac(a2-3)Gal(b1-4)[Fuc(a1-3)]GlcNAc(b1-3)Gal
# Procedure, shortened: as §1
# [28] = target: Neu5Ac(a2-3)Gal(b1-4)[Fuc(a1-3)]GlcNAc(b1-3)Gal(b1-4)GlcNAc
# Procedure, shortened: as §1
# [29] = target: Neu5Ac(a2-3)Gal(b1-4)[Fuc(a1-3)]GlcNAc(b1-3)Gal(b1-4)[Fuc(a1-3)]GlcNAc(b1-3)Gal(b1-4)[Fuc(a1-3)]GlcNAc
# Procedure, shortened: as §1
# [30] = target: Neu5Ac(a2-3)Gal(b1-4)[Fuc(a1-3)]GlcNAc(b1-6)[Gal(b1-3)]GalNAc
# Procedure, shortened: as §1
# [31] = target: Neu5Ac(a2-3)Gal(b1-4)[Fuc(a1-3)]GlcNAc6S
# Procedure, shortened: as §1
# [32] = target: Neu5Ac(a2-3)Gal6S(b1-4)GlcNAc
# Procedure, shortened: as §1
# [33] = target: Neu5Ac(a2-3)Gal6S(b1-4)[Fuc(a1-3)]GlcNAc
# Procedure, shortened: as §1
# Neu5Ac(a2-3)GalNAc = target: Neu5Ac(a2-3)GalNAc
# Procedure, shortened: as §1
# [34] = target: Neu5Ac(a2-3)GalNAc(b1-4)GlcNAc
# Procedure, shortened: as §1
# [35] = target: Neu5Ac(a2-3)[GalNAc(b1-4)]Gal(b1-4)Glc
# Procedure, shortened: as §1
# [36] = target: Neu5Ac(a2-3)[GalNAc(b1-4)]Gal(b1-4)GlcNAc
# Procedure, shortened: as §1
# [37] = target: Neu5Ac(a2-3)[Neu5Ac(a2-6)]GalNAc
# Procedure, shortened: as §1
# Neu5Ac(a2-6)Gal = target: Neu5Ac(a2-6)Gal
# Procedure, shortened: as §1
# Neu5Ac(a2-6)Gal(b1-4)Glc = target: Neu5Ac(a2-6)Gal(b1-4)Glc
# Procedure, shortened: as §1
# [38] = target: Neu5Ac(a2-6)Gal(b1-4)GlcNAc
# Procedure, shortened: as §1
binder,measurement,setting,value
B1,glycan array binding signal (z-score),[1],0.101
same,glycan array binding signal (z-score),[2],-0.271
same,glycan array binding signal (z-score),[3],1.66
same,glycan array binding signal (z-score),Man(a1-6)Man,-0.289
same,glycan array binding signal (z-score),Man(b1-4)GlcNAc,-0.085
same,glycan array binding signal (z-score),Neu5Ac(a2-3)Gal,-0.305
same,glycan array binding signal (z-score),[4],-0.301
same,glycan array binding signal (z-score),[5],-0.275
same,glycan array binding signal (z-score),[6],-0.296
same,glycan array binding signal (z-score),[7],-0.305
same,glycan array binding signal (z-score),[8],-0.307
same,glycan array binding signal (z-score),[9],-0.296
same,glycan array binding signal (z-score),[10],-0.264
same,glycan array binding signal (z-score),[11],-0.115
same,glycan array binding signal (z-score),[12],-0.223
same,glycan array binding signal (z-score),[13],-0.154
same,glycan array binding signal (z-score),[14],-0.301
same,glycan array binding signal (z-score),[15],-0.221
same,glycan array binding signal (z-score),Neu5Ac(a2-3)Gal(b1-4)Glc,-0.295
same,glycan array binding signal (z-score),[16],-0.303
same,glycan array binding signal (z-score),[17],-0.296
same,glycan array binding signal (z-score),[18],-0.301
same,glycan array binding signal (z-score),[19],-0.309
same,glycan array binding signal (z-score),[20],-0.304
same,glycan array binding signal (z-score),[21],-0.304
same,glycan array binding signal (z-score),[22],-0.294
same,glycan array binding signal (z-score),[23],-0.269
same,glycan array binding signal (z-score),[24],-0.297
same,glycan array binding signal (z-score),[25],-0.3
same,glycan array binding signal (z-score),[26],-0.255
same,glycan array binding signal (z-score),[27],-0.278
same,glycan array binding signal (z-score),[28],-0.255
same,glycan array binding signal (z-score),[29],-0.262
same,glycan array binding signal (z-score),[30],-0.274
same,glycan array binding signal (z-score),[31],0.026
same,glycan array binding signal (z-score),[32],-0.243
same,glycan array binding signal (z-score),[33],-0.24
same,glycan array binding signal (z-score),Neu5Ac(a2-3)GalNAc,-0.303
same,glycan array binding signal (z-score),[34],-0.303
same,glycan array binding signal (z-score),[35],-0.287
same,glycan array binding signal (z-score),[36],-0.298
same,glycan array binding signal (z-score),[37],-0.289
same,glycan array binding signal (z-score),Neu5Ac(a2-6)Gal,-0.301
same,glycan array binding signal (z-score),Neu5Ac(a2-6)Gal(b1-4)Glc,-0.298
same,glycan array binding signal (z-score),[38],-0.294
